About 14,000 (4.5%) of roughly 310,000 compounds showed an effect of 50% or more. Effects have a minus sign here. This is one part of the list.
target: human ether-à-go-go-related gene (hERG) potassium channel (human, UniProt Q12809); test: primary screen, population patch clamp on CHO cells stably expressing hERG
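Further: peak tail current of the secondary pulse compared with the same well before compound.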

human ether-à-go-go-related gene (hERG) potassium channel, sequence (Q12809 whole entry, looked up): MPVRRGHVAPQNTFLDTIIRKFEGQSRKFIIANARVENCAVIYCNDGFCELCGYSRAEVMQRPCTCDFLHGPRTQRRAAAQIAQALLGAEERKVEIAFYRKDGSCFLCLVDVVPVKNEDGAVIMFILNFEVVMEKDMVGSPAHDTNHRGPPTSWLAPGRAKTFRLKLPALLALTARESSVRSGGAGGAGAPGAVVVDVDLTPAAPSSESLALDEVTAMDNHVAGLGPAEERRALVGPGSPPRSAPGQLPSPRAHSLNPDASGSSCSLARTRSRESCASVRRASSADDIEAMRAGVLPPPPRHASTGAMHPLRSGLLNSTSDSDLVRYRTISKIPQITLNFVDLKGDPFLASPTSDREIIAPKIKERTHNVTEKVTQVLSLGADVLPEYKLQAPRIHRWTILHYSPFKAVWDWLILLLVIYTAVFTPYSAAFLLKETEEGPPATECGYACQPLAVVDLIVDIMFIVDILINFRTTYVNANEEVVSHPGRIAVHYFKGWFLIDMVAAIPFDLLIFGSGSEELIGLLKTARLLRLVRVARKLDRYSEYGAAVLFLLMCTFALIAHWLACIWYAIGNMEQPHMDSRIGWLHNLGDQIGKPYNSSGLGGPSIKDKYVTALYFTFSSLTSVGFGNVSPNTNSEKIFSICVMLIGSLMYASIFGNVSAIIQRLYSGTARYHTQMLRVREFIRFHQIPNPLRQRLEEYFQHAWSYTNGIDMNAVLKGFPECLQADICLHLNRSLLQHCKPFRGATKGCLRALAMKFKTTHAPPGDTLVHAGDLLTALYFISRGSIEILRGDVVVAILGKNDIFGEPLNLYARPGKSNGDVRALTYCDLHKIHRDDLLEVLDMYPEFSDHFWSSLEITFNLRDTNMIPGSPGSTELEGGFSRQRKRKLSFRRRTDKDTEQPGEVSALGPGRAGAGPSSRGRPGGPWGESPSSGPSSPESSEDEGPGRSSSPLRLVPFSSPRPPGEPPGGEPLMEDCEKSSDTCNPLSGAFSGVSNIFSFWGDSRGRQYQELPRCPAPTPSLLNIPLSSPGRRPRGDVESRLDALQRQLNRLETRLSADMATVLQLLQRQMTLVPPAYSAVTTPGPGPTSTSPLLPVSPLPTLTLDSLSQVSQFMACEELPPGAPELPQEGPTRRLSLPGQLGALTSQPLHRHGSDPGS

Compound	hERG current change (%, negative = inhibition) at 10uM [%]
CC(C)c1ccc(NC(=O)COc2ccccn2)cc1	7.69
CNC(=O)C(=O)NCC1OCCN1S(=O)(=O)c1ccc(C)cc1 (stereo not shown)	13.8
Clc1ccc(C(c2nnnn2C2CCCC2)N2CCN(Cc3ccncc3)CC2)cc1 (stereo not shown)	-71.7
N#CC1=C(N)OC2=C(CN(Cc3ccccc3)C/C2=C\c2cccnc2)C1c1cccnc1 (stereo not shown)	-1.44
COc1ccc(C)c2sc(NNC(=O)COc3ccccc3)nc12	6.35
CCN1CCC2(CC1)N=C(c1ccc(F)cc1)C(=S)N2C(=O)c1ccc(C)cc1	-39
CCC(=O)Nc1ccc2c(c1)C(=O)c1ccccc1C2=O	-0.653
C=CCn1cccc(C(=O)Nc2ccc(SC)cc2)c1=O	-15
Cn1ncc(Cl)c1C(=O)N1CCN(S(=O)(=O)c2cccs2)CC1	2.71
Cc1ccccc1NC(=O)c1cccc(NC(=O)CCC(=O)O)c1	6.69
O=C(NCCc1ccccc1)C1CCC(=O)N(Cc2ccc(Cl)cc2)C1 (stereo not shown)	-20.5
O=C(CC(C(=O)O)c1ccccc1)c1cccs1 (stereo not shown)	5.8
CCOc1ccc(CN2CCN(C(=O)c3ccco3)CC2)cc1.O=C(O)C(=O)O	-26.8
COc1ccc(CCNC(=O)c2cccnc2SC)cc1	3.68
COCCN(CCOC)C(=O)c1cc2sc3ccccc3c2s1	-70.6
O=S(=O)(c1ccc(F)cc1)N1CCN(CC(O)COCc2cccs2)CC1 (stereo not shown)	-18.5
CCNC(=O)C(=O)Nc1cc2c3c(c1)CCN3C(=O)CC2	15.6
Cc1cccc(NC(=O)CCc2c(C)nn(-c3ccc(N4CCOCC4)nn3)c2C)c1	3.98
CC(=O)N1CCC2(CC1)CC(=O)c1cc(OCC(=O)N3CCOCC3)ccc1O2	-10.6
O=C(Nc1cccc(Cl)c1)c1cc(S(=O)(=O)N2CCOCC2)cs1	8.09
Cn1cccc1C(=O)NS(=O)(=O)c1ccccc1Cl	5.14
CCC(C(=O)NCc1ccco1)N(C(=O)CNS(=O)(=O)c1ccccc1)c1ccc(F)cc1 (stereo not shown)	-7.57
CCn1c(C)nc2cc(C(=O)NNC(=S)Nc3ccc(C)cc3)ccc21	14.6
Cc1nc2c(sc3nc4c(cc32)COC(C)(C)C4)c(=O)o1	-18.1
O=C1Nc2cc(C(=O)NCCCN3CCOCC3)ccc2S/C1=C/c1ccccc1F	-29.8
